From paper PMC7355546, “Lignans, Amides, and Saponins from Haplophyllum tuberculatum and Their Antiprotozoal Activity” (Molecules, 2020)
Several values for one entry are separate records, joined by “and”; a condition that tells them apart may be missing. Equal values may be shown once. Read-outs that look alike come from different tables or passages of the source.

Test system: L. donovani (MHOM/ET/67/L82) axenic amastigotes
Assay: Activity against Leishmania donovani axenic amastigotes (resazurin)
Conditions: for IC50: mean of at least two independent replicates ± absolute deviation; for L. donovani SI (selectivity index): IC50 in L6 cells divided by IC50 in L. donovani
[1] = Leishmania donovani, read-out: L. donovani IC50, axenic amastigotes MHOM-ET-67/L82

Row | Compound | IC50 [1] | L. donovani SI (selectivity index) | IC50 (read-out: L. donovani IC50, axenic amastigotes MHOM-ET-67/L82)
1 | COc1cc(C(=O)/C(C)=C(/C)C(=O)c2ccc(O)c(OC)c2)ccc1O [Compound 7, furoguaiaoxidin] | 136 ± 1.5 µM | – | –
2 | COc1cc(/C=C/C(=O)NCCCCNC(=O)/C=C/c2ccc(O)c(OC)c2)ccc1O [Compound 8, N,N′-diferuloylputrescine] | 97 ± 0.9 µM | 1.5 | –
3 | COc1cc([C@H]2O[C@@H](c3ccc(O)c(OC)c3)[C@H](C)[C@@H]2C)ccc1O [Compound 2, nectandrin B] | 5 µM | 26 and 25.5 | 4.5 ± 1 µM
4 | COc1cc([C@H]2O[C@@H](c3ccc(O)c(OC)c3)[C@@H](C)[C@H]2C)ccc1O [Compound 1, tetrahydrofuroguaiacin B] | 22.6 ± 6.5 µM | 4.2 | –
5 | CCCCCCCCCCCCCCCCOP(=O)([O-])OCC[N+](C)(C)C [miltefosine, reference compound] | 0.5 µM | – | –
6 | COc1cc(CCC(=O)NCCc2ccc(O)cc2)ccc1O [Compound 5, dihydro-feruloyltyramine] | 141 ± 1.9 µM | – | –
7 | CCOC(CNC(=O)/C=C/c1ccc(O)c(OC)c1)c1ccc(O)cc1 (stereo not shown) [Compound 9, 7′-ethoxy-feruloyltyramine] | 69.6 ± 4.6 µM | 3.0 | –
8 | COc1cc(CC(C)C(CO)Cc2ccc(O)c(OC)c2)ccc1O (stereo not shown) [Compound 10, 3,3′-dimethoxy-4,4′-dihydroxylignan-9-ol] | 55.3 ± 3 µM | 2.3 | –
9 | COc1cc(/C=C/C(=O)NCCc2ccc(O)cc2)ccc1O [Compound 6, (E)-N-feruloyltyramine] | 99.4 ± 9.3 µM | 2.5 | –
